# Test results published in the supplement of paper PMC8728848.
# This is one part of the list.
# B1: WGA (Triticum vulgare) (protein)
# chain: QRCGEQGSNMECPNNLCCSQYGYCGMGGDYCGKGCQNGACWTSKRCGSQAGGATCPNNHCCSQYGHCGFGAEYCGAGCQGGPCRADIKCGSQSGGKLCPNNLCCSQWGFCGLGSEFCGGGCQSGACSTDKPCGKDAGGRVCTNNYCCSKWGSCGIGPGYCGAGCQSGGCDAVFAGAITANSTLLAE
# Tests used:
# Experiment in all cases: glycan array binding signal (z-score within array); higher = stronger binding
# Conditions in all cases: glycan notation: IUPAC condensed, linker removed
# [1] = target: Gal(a1-4)Gal(b1-4)GlcNAc(b1-2)Man(a1-3)[Gal(a1-4)Gal(b1-4)GlcNAc(b1-2)Man(a1-6)]Man(b1-4)GlcNAc(b1-4)GlcNAc
# Method in brief: (§1)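 The Consortium for Functional Glycomics database supplied 3228 glycan arrays, of which those lacking an available protein sequence were dropped. The binding signal, a within-array Z-score, was averaged across arrays of the same protein sequence and across linkers. Negative scores can be read as non-binding.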
# [2] = target: Gal(a1-4)Gal(b1-4)GlcNAc(b1-3)Gal(b1-4)Glc
# Method in brief: as §1
# [3] = target: Gal(a1-4)GlcNAc
# Method in brief: as §1
# [4] = target: Gal(a1-6)Glc
# Method in brief: as §1
# [5] = target: Gal(b1-2)Gal
# Method in brief: as §1
# [6] = target: Gal(b1-3)Gal
# Method in brief: as §1
# [7] = target: Gal(b1-3)Gal(b1-4)GlcNAc
# Method in brief: as §1
# [8] = target: Gal(b1-3)GalNAc
# Method in brief: as §1
# [9] = target: Gal(b1-3)GalNAc(a1-3)[Fuc(a1-2)]Gal(b1-4)Glc
# Method in brief: as §1
# [10] = target: Gal(b1-3)GalNAc(a1-3)[Fuc(a1-2)]Gal(b1-4)GlcNAc
# Method in brief: as §1
# [11] = target: Gal(b1-3)GalNAc(b1-3)Gal
# Method in brief: as §1
# [12] = target: Gal(b1-3)GalNAc(b1-3)Gal(a1-4)Gal(b1-4)Glc
# Method in brief: as §1
# [13] = target: Gal(b1-3)GalNAc(b1-4)Gal(b1-4)Glc
# Method in brief: as §1
# [14] = target: Gal(b1-3)GalNAc(b1-4)[Neu5Ac(a2-3)]Gal(b1-4)Glc
# Method in brief: as §1
# [15] = target: Gal(b1-3)GlcNAc
# Method in brief: as §1
# [16] = target: Gal(b1-3)GlcNAc(a1-3)Gal(b1-4)GlcNAc
# Method in brief: as §1
# [17] = target: Gal(b1-3)GlcNAc(a1-6)Gal(b1-4)GlcNAc
# Method in brief: as §1
# [18] = target: Gal(b1-3)GlcNAc(b1-2)Man
# Method in brief: as §1
# [19] = target: Gal(b1-3)GlcNAc(b1-2)Man(a1-3)[Gal(b1-3)GlcNAc(b1-2)Man(a1-6)]Man(b1-4)GlcNAc(b1-4)GlcNAc
# Method in brief: as §1
# [20] = target: Gal(b1-3)GlcNAc(b1-2)Man(a1-3)[Gal(b1-3)GlcNAc(b1-2)Man(a1-6)]Man(b1-4)GlcNAc(b1-4)[Fuc(a1-6)]GlcNAc
# Method in brief: as §1
# [21] = target: Gal(b1-3)GlcNAc(b1-2)Man(a1-3)[GlcNAc(b1-4)][Gal(b1-3)GlcNAc(b1-2)Man(a1-6)]Man(b1-4)GlcNAc(b1-4)GlcNAc
# Method in brief: as §1
# [22] = target: Gal(b1-3)GlcNAc(b1-2)[Gal(b1-3)GlcNAc(b1-6)]Man(a1-6)[Gal(b1-3)GlcNAc(b1-2)Man(a1-3)]Man(b1-4)GlcNAc(b1-4)GlcNAc
# Method in brief: as §1
# [23] = target: Gal(b1-3)GlcNAc(b1-3)Gal(b1-3)GlcNAc
# Method in brief: as §1
# [24] = target: Gal(b1-3)GlcNAc(b1-3)Gal(b1-4)Glc
# Method in brief: as §1
# [25] = target: Gal(b1-3)GlcNAc(b1-3)Gal(b1-4)GlcNAc
# Method in brief: as §1
# [26] = target: Gal(b1-3)GlcNAc(b1-3)Gal(b1-4)GlcNAc(b1-2)Man(a1-3)[Gal(b1-3)GlcNAc(b1-3)Gal(b1-4)GlcNAc(b1-2)Man(a1-6)]Man(b1-4)GlcNAc(b1-4)GlcNAc
# Method in brief: as §1
# [27] = target: Gal(b1-3)GlcNAc(b1-3)Gal(b1-4)GlcNAc(b1-2)[Gal(b1-3)GlcNAc(b1-3)Gal(b1-4)GlcNAc(b1-6)]Man(a1-6)[Gal(b1-3)GlcNAc(b1-3)Gal(b1-4)GlcNAc(b1-2)Man(a1-3)]Man(b1-4)GlcNAc(b1-4)[Fuc(a1-6)]GlcNAc
# Method in brief: as §1
# [28] = target: Gal(b1-3)GlcNAc(b1-3)Gal(b1-4)GlcNAc(b1-3)Gal(b1-4)GlcNAc(b1-2)[Gal(b1-3)GlcNAc(b1-3)Gal(b1-4)GlcNAc(b1-3)Gal(b1-4)GlcNAc(b1-6)]Man(a1-6)[Gal(b1-3)GlcNAc(b1-3)Gal(b1-4)GlcNAc(b1-3)Gal(b1-4)GlcNAc(b1-2)Man(a1-3)]Man(b1-4)GlcNAc(b1-4)[Fuc(a1-6)]GlcNAc
# Method in brief: as §1
# [29] = target: Gal(b1-3)GlcNAc(b1-3)Gal(b1-4)GlcNAc(b1-6)[Gal(b1-3)GlcNAc(b1-3)]Gal(b1-4)Glc
# Method in brief: as §1
# [30] = target: Gal(b1-3)GlcNAc(b1-3)Gal(b1-4)[Fuc(a1-3)]GlcNAc
# Method in brief: as §1
# [31] = target: Gal(b1-3)GlcNAc(b1-3)Gal(b1-4)[Fuc(a1-3)]GlcNAc(b1-6)[Gal(b1-3)GlcNAc(b1-3)]Gal(b1-4)Glc
# Method in brief: as §1
# [32] = target: Gal(b1-3)GlcNAc(b1-3)GalNAc
# Method in brief: as §1
# [33] = target: Gal(b1-3)GlcNAc(b1-6)Gal(b1-4)GlcNAc
# Method in brief: as §1
# [34] = target: Gal(b1-3)GlcNAc(b1-6)GalNAc
# Method in brief: as §1
# [35] = target: Gal(b1-3)GlcNAc(b1-6)[Gal(b1-3)]GalNAc
# Method in brief: as §1
# [36] = target: Gal(b1-3)GlcNAc6S
# Method in brief: as §1
# [37] = target: Gal(b1-3)[Fuc(a1-4)]GlcNAc
# Method in brief: as §1
# [38] = target: Gal(b1-3)[Fuc(a1-4)]GlcNAc(b1-2)Man
# Method in brief: as §1
# [39] = target: Gal(b1-3)[Fuc(a1-4)]GlcNAc(b1-2)Man(a1-3)[Gal(b1-3)[Fuc(a1-4)]GlcNAc(b1-2)Man(a1-6)]Man(b1-4)GlcNAc(b1-4)[Fuc(a1-6)]GlcNAc
# Method in brief: as §1
# [40] = target: Gal(b1-3)[Fuc(a1-4)]GlcNAc(b1-3)Gal(b1-3)[Fuc(a1-4)]GlcNAc
# Method in brief: as §1
# [41] = target: Gal(b1-3)[Fuc(a1-4)]GlcNAc(b1-3)Gal(b1-4)GlcNAc
# Method in brief: as §1
# [42] = target: Gal(b1-3)[Fuc(a1-4)]GlcNAc(b1-3)Gal(b1-4)[Fuc(a1-3)]GlcNAc
# Method in brief: as §1
# [43] = target: Gal(b1-3)[Fuc(a1-4)]GlcNAc(b1-6)GalNAc
# Method in brief: as §1
# [44] = target: Gal(b1-3)[GlcNAc(b1-6)]GalNAc
# Method in brief: as §1
# [45] = target: Gal(b1-3)[Neu5Ac(a2-6)]GalNAc
# Method in brief: as §1
binder,measurement,setting,value
B1,glycan array binding signal (z-score),[1],-0.064
same,glycan array binding signal (z-score),[2],-0.226
same,glycan array binding signal (z-score),[3],-0.352
same,glycan array binding signal (z-score),[4],-0.327
same,glycan array binding signal (z-score),[5],-0.351
same,glycan array binding signal (z-score),[6],-0.372
same,glycan array binding signal (z-score),[7],-0.293
same,glycan array binding signal (z-score),[8],-0.339
same,glycan array binding signal (z-score),[9],-0.366
same,glycan array binding signal (z-score),[10],0.106
same,glycan array binding signal (z-score),[11],-0.346
same,glycan array binding signal (z-score),[12],-0.328
same,glycan array binding signal (z-score),[13],-0.338
same,glycan array binding signal (z-score),[14],-0.39
same,glycan array binding signal (z-score),[15],-0.349
same,glycan array binding signal (z-score),[16],-0.155
same,glycan array binding signal (z-score),[17],-0.344
same,glycan array binding signal (z-score),[18],-0.277
same,glycan array binding signal (z-score),[19],-0.195
same,glycan array binding signal (z-score),[20],-0.293
same,glycan array binding signal (z-score),[21],0.703
same,glycan array binding signal (z-score),[22],-0.291
same,glycan array binding signal (z-score),[23],-0.315
same,glycan array binding signal (z-score),[24],-0.373
same,glycan array binding signal (z-score),[25],-0.22
same,glycan array binding signal (z-score),[26],-0.225
same,glycan array binding signal (z-score),[27],-0.056
same,glycan array binding signal (z-score),[28],-0.123
same,glycan array binding signal (z-score),[29],-0.157
same,glycan array binding signal (z-score),[30],-0.405
same,glycan array binding signal (z-score),[31],-0.322
same,glycan array binding signal (z-score),[32],-0.358
same,glycan array binding signal (z-score),[33],-0.362
same,glycan array binding signal (z-score),[34],-0.345
same,glycan array binding signal (z-score),[35],-0.339
same,glycan array binding signal (z-score),[36],-0.379
same,glycan array binding signal (z-score),[37],-0.353
same,glycan array binding signal (z-score),[38],-0.278
same,glycan array binding signal (z-score),[39],-0.172
same,glycan array binding signal (z-score),[40],-0.336
same,glycan array binding signal (z-score),[41],-0.209
same,glycan array binding signal (z-score),[42],-0.349
same,glycan array binding signal (z-score),[43],-0.309
same,glycan array binding signal (z-score),[44],-0.088
same,glycan array binding signal (z-score),[45],-0.353
